Measurements as given in PubChem BioAssay AID652106 (National Center for Advancing Translational Sciences (NCATS), 2013).
Where “and” joins values, the source holds several entries; their conditions need not be identical. Equal entries are not always repeated. Out of some 370,000 compounds screened, about 500 (0.14%) were called active. Inconclusive means that the source gave no clear call. Such entries were picked first, then a sample of the others. Calls follow the shape of the dose curve; as a rule, active = well fitted activation curve with a large enough effect; inconclusive = small, poorly fitted or top-dose-only effect; inactive = no such curve, though single readings can be large or run the other way. Potencies beside an inconclusive call are fits to weak or partial responses and may not hold up.

Assay: qHTS of alpha-syn Inhibitors; also: nearly all actives have a fitted effect of over 65% in size; as to growth rescue (activation): % of control where 0% means no effect
Conditions: Yeast expressing alpha-synuclein, BacTiter-Glo, 24 h; Potency: growth rescue unless noted; growth rescue (activation): at 46.1 µM (top of the series) unless noted
How it was run: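 Readout is rescue of growth in alpha-synuclein-expressing yeast, so inhibitors of toxicity appear as activators. Growth after 24 hr at 30 deg C in galactose medium is quantified by luminescence.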
Potency is read from the fitted curve at half-maximal effect; tags tell the direction and shape of the fitted curve.

Potency, inconclusive:
CCCCCCSc1ccc([C@@H]2[C@@H]3C(=O)N(CC)C(=O)[C@@H]3[C@]3(C(=O)OC)CCCCN23)cc1OC 12.6 µM [activator, partial curve], COc1cccc(C(O)c2nc(-c3cccc(CO)c3)cs2)c1 (stereo unspecified) 17.8 µM [activator, partial curve], CCOc1ccc(-n2c(SCC(=O)N3CCCCC3)nc3c([nH]c4ccccc43)c2=O)cc1 35.5 µM [activator, single point], COc1ccc(N=Cc2c(O)n(-c3cccc(C)n3)c(=O)c3ccccc23)cc1 35.5 µM [activator, single point], Cc1cc(S(=O)(=O)N2CCOCC2)ccc1OCC(=O)N1CCC(C(N)=O)CC1 31.6 µM [activator, single point], Cc1cccc(COC[C@H](Cc2ccccc2)N2CCN(C(=O)c3cc(Cl)cc(Cl)c3)CCC2=O)c1 5.01 µM [activator, single point], COc1ccccc1OCCC(=O)OCC(=O)NC(C)c1ccccc1 (stereo unspecified) 25.1 µM [activator, single point], CC1CCCC(NS(=O)(=O)c2cc(Br)cnc2N)C1C (stereo unspecified) 22.4 µM [activator, single point], COCCCNc1c2c(nc3ccccc13)CCC2 35.5 µM [activator, single point], Cc1onc(-c2c(Cl)cccc2Cl)c1C(O)c1ccc(F)cc1 (stereo unspecified) 14.1 µM [activator, partial curve], Oc1c(I)cc(Cl)c2cccnc12 4.47 µM [activator, single point] and 3.55 µM [activator, single point], CC1(C(=O)Nc2cccc3c2CCCC3)CCN1C(=O)CCC1CCCC1 (stereo unspecified) 10 µM [activator, partial curve], COC(=O)[C@@]12CCCCN1[C@H](c1ccc(-c3cccc(Cl)c3)c(OC)c1)[C@@H]1C(=O)N(C)C(=O)[C@@H]12 22.4 µM [activator, single point], COc1ccc(C(=O)/C=C/Nc2c(C)n(C)n(-c3ccccc3)c2=O)c(OC)c1 11.2 µM [activator, partial curve], CCc1cc2c(=O)oc(-c3ccc(F)cc3)nc2s1 3.98 µM [activator, single point], COc1ccc(S(=O)(=O)NCCSCc2ccccc2C)cc1Br 17.8 µM [activator, single point], O=C(Nc1nc(-c2ccccc2)c(-c2ccccc2)o1)c1ccc(F)cc1 5.62 µM [activator, single point], CCOc1ccc(C(=O)N/N=C(\c2ccccc2)c2ccccn2)cc1 17.8 µM [activator, single point], Cc1ccccc1COc1cccc(/C=N/NC(=O)c2nnn(-c3nonc3N)c2C)c1 35.5 µM [activator, single point], O=C(N/N=C/c1ccccn1)c1ccc(Cl)cc1 35.5 µM [activator, single point], Cc1cnc2ccc(I)cc2c1/C=C/c1ccc(N(C)C)cc1 5.62 µM [activator, single point], COc1cccc(NC(=O)C2(C)CCN2C(=O)C2CCCCC2)c1 (stereo unspecified) 0.562 µM [activator, full curve, poor fit], CN(C)c1c(Cl)cc(/C=C2\C=Cc3ccccc32)cc1Cl 12.6 µM [activator, single point], O=C(CC(Nc1ccccc1)C(=O)O)c1ccccc1 (stereo unspecified) 15.8 µM [activator, single point], O=C(CN1CCN(c2ccccc2)CC1)N1CCc2ccccc21 3.55 µM [activator, single point], COc1ccc(-n2c(SCc3ccc([N+](=O)[O-])cc3)nnc2-c2ccccc2)cc1 35.5 µM [activator, single point], O=C(N/N=C/c1ccccn1)c1cc(-c2ccc(Br)cc2)nc2ccccc12 5.62 µM [activator, single point], CN(CC(=O)Nc1ccc(Cl)c(Cl)c1)C(=O)C12CC3CC(CC(C3)C1)C2 35.5 µM [activator, single point], CSCCNC(=O)c1cccc(Cl)c1 35.5 µM [activator, single point], C=CCNC(=O)c1ccsc1N 35.5 µM [activator, single point], Cc1cccnc1Nc1nc(-c2ccc(O)cc2O)cs1 22.4 µM [activator, single point], CC(C)(C)c1ccc(CC(=O)N2CCC2(C)C(=O)Nc2ccc3[nH]ncc3c2)cc1 (stereo unspecified) 14.1 µM [activator, single point], Cc1cc(OCC(=O)Nc2ccc(CCO)cc2)c2c(C)c(C)c(=O)oc2c1 6.31 µM [activator, single point], O=C(COc1ccccc1C(=O)Nc1ccccc1)NC1CCCCC1 4.47 µM [activator, single point]

Growth rescue (activation), inconclusive:
CC(=O)Oc1oc(-c2ccccc2)nc1/C=N/c1ccccn1 -87.7% [activator]

Growth rescue (activation), inactive:
C/C(=N\O)c1ccc(Cl)cc1Cl -0.182%, Cc1cc(=O)oc2cc(OCC(O)CN3CCc4ccccc4C3)ccc12 (stereo unspecified) -1.45%, O=C(NCCO)c1ccc2c3n(nc2c1)-c1ccccc1CO3 -1.98%, Cc1cc(O)c2c(C)c(CC(=O)N3CCN(C(=O)C4COc5ccccc5O4)CC3)c(=O)oc2c1 (stereo unspecified) 0.511%, Cc1cc2oc(=O)cc(-c3ccccc3)c2c(C)c1-c1ccc(O)cc1 -54.4%, CCn1c(COC(=O)CNC(=O)c2ccccc2F)nc2cc(S(=O)(=O)N(C)C)ccc21 -4.65%
